This note sets out measurements from PubChem BioAssay AID463173 (ICCB-Longwood Screening Facility, Harvard Medical School, 2010).

Hit rate of the full screen: of about 52,000 compounds, about 4,300 (8.3%) were called active. Rule as the data show it: active = survival mostly below about 52% (no sharp cut-off); inactive = mostly above about 56%. Some of the results follow.

The assay deals with DeltatarO mutant. The assay can be described thus: growth inhibition of S. aureus wild type versus tarO mutant, primary screen, teichoic acid synthesis inhibitors, RN4220, OD600 (AID 463173). The conditions noted are these: OD600, 18 h, stronger effect = lower value, screened at 18.75 µg/mL (by protocol).
Regarding `CC1CCc2c(sc(NC(=O)COc3ccccc3)c2C(=O)Nc2ccccc2Cl)C1` (stereo unspecified), the survival is inactive: 190%.
As to `CC(NC(=O)Cc1ccccc1)c1ccccc1` (stereo unspecified), the survival was inactive: 82%.
`Cc1ccc(CSCC(=O)N2CCN(c3cc(Cl)ccc3C)CC2)cc1`: the survival was inactive: 75%.
Turning to `Cc1ccc(-n2nc(C(=O)NCCN(C)C)c(=O)n(C)c2=O)cc1`, the survival was inactive: 87%.
The same measure for `O=C(Nc1ccc(SC(F)F)cc1)c1cc(-c2ccc3c(c2)OCCO3)on1`: inactive: 49%; for `COCCCNc1c2c(nc3ccccc13)CCC2`: inactive: 125%; for `Cc1noc(Cn2c(=O)c3cc4c(cc3n(CC(=O)Nc3cccc(Cl)c3)c2=O)OCO4)n1`: inactive: 122%.
As to `CCOc1ccc(CNC(=O)c2c(C)nn(-c3ccc(F)cc3)c2-n2cccc2)cc1`, the survival was inactive: 120%.
For the compound `CC(=O)Nc1nonc1-c1nnc(SCC(=O)Nc2ccc(C)cc2C)n1C`, the survival is inactive: 50%.
With `COc1cccc(CNC(=O)c2cc(=O)[nH]c3ccc(S(=O)(=O)N4CCCCC4)cc23)c1` the figure was inactive: 58%; with `Cc1ccc2nc(C(=O)O)c(C(=O)O)nc2c1`, inactive: 77%; with `COc1ccccc1CNC(=O)c1ccc2c(c1)sc1nc(-c3ccc(F)cc3)cn12`, inactive: 63%.
The same measure for `CC(C)C(=O)OC1=CN(Cc2ccccc2)S(=O)(=O)c2ccccc21`: inactive: 73%.
The same measure for `Cc1cccc(C)c1Nc1c(-c2ccc(Cl)s2)nc2ncccn12`: inactive: 103%; for `Cc1ccc(Cl)cc1NC(=O)CN(C)S(=O)(=O)c1ccc2c(c1)n(C)c(=O)c(=O)n2C`: inactive: 87%; for `COc1ccc(C2C(C(N)=O)=C(C)Nc3nc(-c4ccccc4Cl)nn32)cc1` (stereo unspecified): inactive: 88%.
Take `Cc1[nH]c2ccccc2c1C(=O)C(=O)NC1CC(=O)N(c2cccc(F)c2)C1` (stereo unspecified): the survival was inactive: 83%.
In the case of `Cc1ccc2oc(C(=O)N(Cc3ccccc3F)C3CCS(=O)(=O)C3)c(C)c2c1` (stereo unspecified), the survival is inactive: 68%.
With `COc1cccc(NC(=O)CC2C(=O)OCCN2Cc2ccccc2)c1` (stereo unspecified) the figure was inactive: 199%.
With `Cc1ccc(S(=O)(=O)N2CCN(C(=O)CN3CCOCC3)C2C(C)C)cc1` (stereo unspecified) the figure was inactive: 87%; with `O=C(CSc1nc2c(cnn2-c2ccc(F)cc2)c(=O)[nH]1)Nc1ccc(Br)cc1`, inactive: 60%.
In the case of `Cn1c(=O)[nH]c(=O)c2c1nc1n(CCO)c(-c3ccccc3)cn21`, the survival was inactive: 82%.
With `Cc1ccc(-c2nn(CC(=O)NC3CCCCC3)c3c2cnc2ccc(F)cc23)cc1C`, the survival was active: 0%.
For `CCOc1cccc2cc(-c3nnc(Nc4ccc(F)c(Cl)c4)s3)c(=O)oc12`, the survival is inactive: 71%.
The same measure for `Cc1ccc(CSc2nc3cccnc3n2Cc2ccc(C(=O)NC3CCCCC3)cc2)cc1`: inactive: 79%; for `CCCOc1ccc(C2c3c(oc4ccc(F)cc4c3=O)C(=O)N2CCc2ccc(OC)cc2)cc1` (stereo unspecified): inactive: 78%.
For the compound `O=C(CSc1oc(-c2ccc(F)cc2)nc1S(=O)(=O)c1ccc(Br)cc1)NC1CCCCC1`, the survival was inactive: 64%.
The same measure for `CC(=O)Nc1nonc1-c1nnc(SCC(=O)Nc2ccc(C)c(Cl)c2)n1C`: active: 60%; for `CCOc1ccc2c(c1)c(=O)c(S(=O)(=O)c1ccc(C)cc1)cn2Cc1ccccc1Cl`: inactive: 82%; for `CCN1CCN(c2ncnc3c2cnn3-c2cc(Cl)ccc2C)CC1`: inactive: 126%.
With `Cc1cc(C)n(CC(=O)n2c3ccccc3c3ccccc32)n1` the figure was inactive: 78%; with `CC1CCN(S(=O)(=O)c2csc(C(N)=O)c2)CC1`, inactive: 85%.
The same measure for `COc1ccccc1N1CCN(c2ncnc3c2c(-c2ccccc2)cn3-c2cccc(C)c2)CC1`: inactive: 70%.
Regarding `Cc1ccc(-c2nnc3c4ccccc4c(C)nn23)cc1NC(=O)c1cccc(Br)c1`, the survival is inactive: 99%.
For the compound `COc1ccc(NC(=O)C2CCCN(S(=O)(=O)c3cccc4nonc34)C2)cc1Cl` (stereo unspecified), the survival is inactive: 72%.
As for `COc1ccccc1NC(=O)CSc1nc2c(oc3ccccc32)c(=O)n1Cc1ccco1`, the survival is inactive: 59%.
The same measure for `O=C(NCc1cccc(Cl)c1)NCc1noc2ccccc12`: inactive: 60%.
The same measure for `COc1cccc(N2CCN(c3ncnc4c3c(-c3ccccc3)cn4-c3ccc(F)cc3)CC2)c1`: inactive: 78%.
With `CCCCN(CC)C(=O)CCCn1c(=O)c2cccn2c2ccccc21` the figure was active: 49%; with `COc1cc(S(=O)(=O)Nc2ccccn2)ccc1Cl`, inactive: 108%; with `CC(Oc1ccc(Cl)cc1Cl)C(=O)N1CCN(C(=O)c2ccco2)CC1` (stereo unspecified), inactive: 99%.
Turning to `NS(=O)(=O)c1ccccc1`, the survival is inactive: 97%.
With `COc1ccc(-c2nc(S(=O)(=O)c3ccc(C)cc3)c(N3CCCCC3)o2)cc1` the figure was inactive: 54%.
In the case of `Cc1ccc(CNC(=O)CN2C(=O)CC(c3ccc(C)c(C)c3)=Nc3ccccc32)cc1`, the survival is active: 52%.
With `Cc1cc(N(C(=O)c2cnccn2)C(C(=O)NCc2ccccc2)c2cccs2)ccc1-n1cnnn1` (stereo unspecified) the figure was inactive: 74%; with `CCCCOC(=O)c1ccc(Nc2ncnc3c2cnn3-c2cccc(C)c2)cc1`, inactive: 74%.
The same measure for `Cc1cccc(CN2CCC(CNc3ncnc4onc(-c5ccc(Cl)cc5)c34)CC2)c1`: inactive: 98%; for `Cc1cc(C(C)(C)C)oc1C(=O)N(CC(=O)NC1CCCC1)c1ccc(F)cc1`: inactive: 77%.
The same measure for `O=C(CNCc1ccccc1F)Nc1ccc(N2CCCC2)cc1`: inactive: 102%; for `COc1ccc(-c2nc(SCC(=O)NCc3ccccc3Cl)n[nH]2)cc1`: inactive: 87%.
Take `COc1ccc(CNC(=O)CCNS(=O)(=O)c2ccc3c(c2)CCCC(=O)N3)cc1`: the survival is inactive: 119%.
The same measure for `Cc1ccc(Cn2c(CCNC(=O)C(C)C)nc3ccccc32)cc1`: inactive: 78%; for `Cc1ccc(Cl)cc1N(C)C(=O)C1CCCN(c2ncnc3onc(-c4ccc(F)cc4)c23)C1` (stereo unspecified): inactive: 73%.
With `CC(C)Cn1c(-c2ccc(Cl)cc2)cnc1SCC(=O)N1CCCC1` the figure was inactive: 65%; with `Cc1nn(-c2ccc(N3CCCC3)nn2)c(C)c1CCC(=O)N1CCN(c2ccccc2F)CC1`, inactive: 76%; with `O=C(C1CCC1)N1CCc2cc(S(=O)(=O)NCCc3ccccc3)ccc21`, inactive: 107%.
Turning to `O=C(Cn1nc(-c2ccc(Cl)cc2)ccc1=O)NCCc1ccccc1`, the survival was inactive: 73%.
As for `CC(C(=O)Nc1ccccc1)N1C(=O)c2ccccc2C1=O` (stereo unspecified), the survival was inactive: 88%.
The same measure for `CCC(=O)Nc1cccc(NC(=O)CSc2nnnn2C(C)C)c1`: inactive: 94%.
With `CCOC(=O)CCc1c(C)nc2c(c(C)nn2-c2ccc(C)cc2)c1C` the figure was inactive: 120%; with `COc1ccc(C2=Nn3c([n+](C)c4ccccc43)SC2)cc1`, active: 0%.
With `COCCNC(=O)c1[nH]c2cc(C)ccc2c1Sc1ccc(Cl)cc1` the figure was inactive: 89%; with `O=C(Nc1cccc(-c2nc3ccccc3o2)c1)c1cccc2c(Cl)cccc12`, inactive: 46%.
As for `Cc1ccc2nc(COc3cccc(NC(=O)COc4ccc(F)cc4)c3)cc(=O)n2c1`, the survival is inactive: 63%.
With `Cc1ccc(NC(=O)CCS(=O)(=O)c2ccc3c(c2)oc(=O)n3C)c(Br)c1` the figure was inactive: 80%.
With `Cc1cc(C)cc(-n2c(SCC(=O)NC3CCCCC3)nc3c([nH]c4ccccc43)c2=O)c1` the figure was inactive: 94%; with `N#C/C(=C\c1cn(CC(=O)N2CCCC2)c2ccccc12)C(=O)NCc1ccc2c(c1)OCO2`, inactive: 66%.
With `Cc1c(Cl)cccc1Nc1nn2c(=O)c3ccc(C(=O)N(C)Cc4ccccc4)cc3nc2s1` the figure was inactive: 81%; with `COc1ccc(NC(=O)c2cc3c(C)nn(-c4ccccc4)c3s2)c(OC)c1`, inactive: 59%.
On to `c1cncc(C2=Nc3ccccc3C(c3cccnc3)=NN2)c1`, for which the survival was inactive: 102%.
Consider `O=C(CN1CCN(C2CCCCC2)CC1)N(c1ccccc1)c1ccc(O)cc1`, for which the survival is inactive: 96%.
With `O=c1[nH]c(SCc2c(F)cccc2Cl)nc2c1CCCC2` the figure was inactive: 56%; with `COc1ccc(-c2nc(CSCC(=O)N3CCN(c4ccccc4)CC3)c(C)o2)cc1`, inactive: 60%.
For the compound `COc1ccc(N2CCN(C(=O)CSCc3ccc(C)cc3)CC2)cc1`, the survival was inactive: 124%.
Take `CC(=O)c1cccc(NS(=O)(=O)c2cccc(S(=O)(=O)c3ccc(Br)cc3)c2)c1`: the survival is inactive: 55%.
`O=C(NCc1ccc2c(c1)CCN2C(=O)c1ccncc1)c1ccccc1F`: the survival is inactive: 117%.
As to `COc1cccc(OCCn2c(-c3ccc(Br)cc3)nc3ccccc3c2=O)c1`, the survival was inactive: 82%.
`O=C(Nc1ccccc1F)NC1CCN(Cc2nnnn2Cc2ccc(F)cc2)CC1`: the survival was inactive: 96%.
With `COC(=O)c1ccccc1NC(=O)CCS(=O)(=O)c1nc(-c2ccc3c(c2)OCO3)cc(C(F)(F)F)n1` the figure was inactive: 118%; with `COc1ccccc1CNc1ncnc2c1nnn2C`, inactive: 70%.
With `CCOCCCn1c(=N)c(S(=O)(=O)c2ccc(Cl)cc2)cc2c(=O)n3cccc(C)c3nc21` the figure was inactive: 65%; with `O=C(COc1ccccc1)OCc1cc(=O)n2nc(-c3cccs3)sc2n1`, inactive: 88%.
In the case of `CC1=CC(c2ccccc2)=Nc2ccc(C)cc2N1`, the survival is inactive: 102%.
With `Cc1c(Cl)cccc1NC(=O)c1cc2nc(-c3ccc4c(c3)OCO4)cc(C(F)(F)F)n2n1` the figure was inactive: 51%; with `CCc1nn(CC(=O)NC(C)CC)c(=O)c2cc3occc3n12` (stereo unspecified), inactive: 89%; with `COc1ccc(CNC(=O)c2cnc3ccc(C)cn3c2=O)cc1`, inactive: 109%.
Consider `Cc1ccccc1NC(=O)c1ccc(N(Cc2ccccc2)S(C)(=O)=O)cc1`, for which the survival was inactive: 66%.
With `CC(C)(C)OC(=O)N1CCC(c2c(C(=O)Nc3ccc4c(c3)OCO4)cnn2-c2ccccc2)CC1` the figure was inactive: 78%.
With `COc1ccc(-n2nc(C(=O)Nc3cc(C)ccn3)c3c4ccccc4n(C)c3c2=O)cc1Cl` the figure was inactive: 88%.
With `CC(=O)Nc1nonc1-c1nnc(SCc2ccccc2)n1C` the figure was inactive: 44%; with `CCOc1ccc(-c2cc(C(=O)NCCc3ccc(OC)c(OC)c3)[nH]n2)cc1`, inactive: 77%.
